{"source": "PubChem BioAssay (NCATS)", "key": {"[1]": {"target": "Rap guanine nucleotide exchange factor 3 (Homo sapiens) (UniProt O95398)", "sequence (O95398 whole entry, looked up)": "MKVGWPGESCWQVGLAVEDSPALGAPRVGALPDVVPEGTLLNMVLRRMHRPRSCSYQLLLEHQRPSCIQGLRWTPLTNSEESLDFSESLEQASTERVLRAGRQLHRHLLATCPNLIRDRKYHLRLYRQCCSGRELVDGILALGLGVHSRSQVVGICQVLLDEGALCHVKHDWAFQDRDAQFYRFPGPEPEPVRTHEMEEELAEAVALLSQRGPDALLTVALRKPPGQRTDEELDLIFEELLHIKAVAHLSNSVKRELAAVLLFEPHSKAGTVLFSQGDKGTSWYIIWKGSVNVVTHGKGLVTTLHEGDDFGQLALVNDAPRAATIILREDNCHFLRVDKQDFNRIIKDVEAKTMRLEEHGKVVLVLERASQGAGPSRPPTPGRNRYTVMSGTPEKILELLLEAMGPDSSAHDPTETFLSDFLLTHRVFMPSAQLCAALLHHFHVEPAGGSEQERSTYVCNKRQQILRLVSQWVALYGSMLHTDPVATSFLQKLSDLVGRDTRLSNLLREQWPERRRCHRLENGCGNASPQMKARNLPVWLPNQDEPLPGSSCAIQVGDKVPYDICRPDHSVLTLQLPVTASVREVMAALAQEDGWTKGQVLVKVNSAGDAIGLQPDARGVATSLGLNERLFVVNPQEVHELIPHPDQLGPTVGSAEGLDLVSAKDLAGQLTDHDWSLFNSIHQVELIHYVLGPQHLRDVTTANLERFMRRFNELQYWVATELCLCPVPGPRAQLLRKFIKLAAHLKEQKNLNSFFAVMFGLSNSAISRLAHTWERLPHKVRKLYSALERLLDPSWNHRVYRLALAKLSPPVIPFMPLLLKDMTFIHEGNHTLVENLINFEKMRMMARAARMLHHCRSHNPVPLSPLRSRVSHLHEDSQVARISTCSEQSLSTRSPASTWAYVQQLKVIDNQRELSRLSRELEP", "assay": "Confirmatory qHTS for antagonist of cAMP-regulated guanine nucleotide exchange factor 3 (EPAC1) (AID 1645880); also: nearly all actives have a fitted effect of over 55% in size; also: potency is read from the fitted curve at half-maximal effect", "details": "EPAC1 Rap1B-BODIPY-GDP exchange, fluorescence; activity, negative = inhibition: at 115 µM (top of the series)", "in_short": "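Nucleotide exchange uses 100 nM EPAC1, 250 nM RAP1B-BODIPY-GDP and 50 uM GDP, with compounds in a concentration-titration series. After 5 min at room temperature, fluorescence (480 nm ex/540 nm em) is read every 5 min for 30 min. Data are normalized to control ATA and DMSO.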"}, "[2]": {"target": "Rap guanine nucleotide exchange factor 3 (Homo sapiens) (UniProt O95398)", "assay": "Counterscreen qHTS for agonist of cAMP-regulated guanine nucleotide exchange factor 3 (EPAC1) (AID 1645889); also: nearly all actives have a fitted effect of over 40% in size; also: potency is read from the fitted curve at half-maximal effect; as to activation: % of control where 0% means no effect", "details": "EPAC1 Rap1B-BODIPY-GDP exchange, fluorescence; activation: at 154 µM (top of the series) unless noted", "in_short": "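Rap1B-BODIPY-GDP 250 nM + GDP 50 uM; cpds 7-pt, final 9.74 nM–152 uM (activator mode) or from 7.32 nM upwards (inhibitor mode); RT; FI 480/540 nm at 5 and 30 min, then ± cAMP, reread.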"}, "[3]": {"target": "DNA polymerase eta (Homo sapiens) (UniProt Q9Y253)", "sequence (Q9Y253 whole entry, looked up)": "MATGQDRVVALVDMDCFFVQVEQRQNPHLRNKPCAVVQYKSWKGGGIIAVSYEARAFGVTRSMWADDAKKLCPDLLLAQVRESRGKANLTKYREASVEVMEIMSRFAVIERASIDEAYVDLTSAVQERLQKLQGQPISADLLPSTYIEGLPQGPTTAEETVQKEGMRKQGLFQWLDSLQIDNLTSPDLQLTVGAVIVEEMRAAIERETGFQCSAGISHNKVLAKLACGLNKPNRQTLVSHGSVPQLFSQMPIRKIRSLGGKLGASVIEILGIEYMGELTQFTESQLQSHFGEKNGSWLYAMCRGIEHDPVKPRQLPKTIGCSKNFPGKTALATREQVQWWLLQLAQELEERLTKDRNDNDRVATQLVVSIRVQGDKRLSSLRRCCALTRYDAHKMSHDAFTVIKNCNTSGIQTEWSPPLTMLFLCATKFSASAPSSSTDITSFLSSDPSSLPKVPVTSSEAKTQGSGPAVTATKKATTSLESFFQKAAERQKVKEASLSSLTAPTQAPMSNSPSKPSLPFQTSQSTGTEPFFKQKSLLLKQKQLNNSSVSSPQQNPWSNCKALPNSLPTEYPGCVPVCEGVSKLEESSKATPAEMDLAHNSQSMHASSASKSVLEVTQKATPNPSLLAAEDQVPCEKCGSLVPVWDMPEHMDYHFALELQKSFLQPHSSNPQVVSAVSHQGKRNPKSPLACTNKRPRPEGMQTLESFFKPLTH", "assay": "qHTS for Inhibitors of Polymerase Eta: Confirmatory Assay for Cherry-picked Compounds (AID 720502); also: potency is read from the fitted curve at half-maximal effect", "details": "Pol eta primer extension, TAMRA/BHQ fluorescence, 10 min", "in_short": "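Plates with 10 nM enzyme and compound stood 15 min at room temperature before substrate addition (50 nM final). Displacement of the TAMRA reporter from the BHQ-2 template was tracked for 10 min.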"}, "[4]": {"target": "RecQ-like DNA helicase BLM (Homo sapiens) (UniProt P54132)", "sequence (P54132 whole entry, looked up)": "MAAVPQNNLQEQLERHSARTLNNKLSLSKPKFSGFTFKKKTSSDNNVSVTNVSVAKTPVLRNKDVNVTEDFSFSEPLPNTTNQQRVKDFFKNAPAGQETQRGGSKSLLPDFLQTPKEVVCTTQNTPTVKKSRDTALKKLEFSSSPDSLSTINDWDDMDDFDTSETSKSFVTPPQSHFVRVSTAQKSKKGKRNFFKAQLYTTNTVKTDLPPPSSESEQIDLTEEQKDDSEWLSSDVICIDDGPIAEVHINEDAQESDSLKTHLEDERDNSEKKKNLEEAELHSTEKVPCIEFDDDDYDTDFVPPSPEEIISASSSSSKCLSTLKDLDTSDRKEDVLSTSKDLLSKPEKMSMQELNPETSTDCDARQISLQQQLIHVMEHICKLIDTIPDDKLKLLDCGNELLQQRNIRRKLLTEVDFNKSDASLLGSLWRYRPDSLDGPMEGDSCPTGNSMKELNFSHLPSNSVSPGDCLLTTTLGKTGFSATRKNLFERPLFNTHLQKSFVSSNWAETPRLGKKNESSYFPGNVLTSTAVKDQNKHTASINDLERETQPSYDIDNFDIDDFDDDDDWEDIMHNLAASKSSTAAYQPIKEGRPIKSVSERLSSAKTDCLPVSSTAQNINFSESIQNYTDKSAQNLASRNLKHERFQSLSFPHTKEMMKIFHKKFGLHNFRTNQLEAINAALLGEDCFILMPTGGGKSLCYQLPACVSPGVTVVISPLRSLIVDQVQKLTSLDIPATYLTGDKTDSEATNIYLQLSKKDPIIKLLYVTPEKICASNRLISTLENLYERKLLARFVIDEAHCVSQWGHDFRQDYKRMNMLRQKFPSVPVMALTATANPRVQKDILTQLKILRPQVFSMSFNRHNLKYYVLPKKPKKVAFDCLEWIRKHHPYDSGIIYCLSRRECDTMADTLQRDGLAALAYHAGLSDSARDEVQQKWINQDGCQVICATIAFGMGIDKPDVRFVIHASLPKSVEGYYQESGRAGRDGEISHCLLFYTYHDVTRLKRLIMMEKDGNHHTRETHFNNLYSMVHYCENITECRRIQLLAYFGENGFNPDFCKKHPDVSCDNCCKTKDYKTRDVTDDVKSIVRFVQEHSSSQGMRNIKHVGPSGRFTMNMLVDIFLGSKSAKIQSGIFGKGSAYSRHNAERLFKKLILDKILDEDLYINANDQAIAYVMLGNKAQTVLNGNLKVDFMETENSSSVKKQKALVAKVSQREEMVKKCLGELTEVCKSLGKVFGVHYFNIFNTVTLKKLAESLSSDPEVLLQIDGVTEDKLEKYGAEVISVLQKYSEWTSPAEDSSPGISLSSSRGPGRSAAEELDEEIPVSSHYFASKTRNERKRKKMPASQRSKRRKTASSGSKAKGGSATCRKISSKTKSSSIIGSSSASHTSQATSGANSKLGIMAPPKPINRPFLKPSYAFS", "assay": "qHTS for Inhibitors of WRN Helicase: BLM Helicase Counterscreen for WRN Inhibitors (AID 720503); also: potency is read from the fitted curve at half-maximal effect; nearly all actives have a fitted effect of over 60% in size", "details": "Recombinant BLM helicase DNA unwinding, red fluorescence; series mostly up to 57.1 µM", "in_short": "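Steps: compounds added to 1 nM BLM in pH 8.0 Tris buffer with 2 mM MgCl2; 15 min room-temperature incubation; substrates added (100 nM DNA, 2 mM ATP final); discontinuous kinetic fluorescence measurement, reads spaced 15 min.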"}, "[5]": {"target": "Rap guanine nucleotide exchange factor 4 (Homo sapiens) (UniProt Q8WZA2)", "sequence (Q8WZA2 whole entry, looked up)": "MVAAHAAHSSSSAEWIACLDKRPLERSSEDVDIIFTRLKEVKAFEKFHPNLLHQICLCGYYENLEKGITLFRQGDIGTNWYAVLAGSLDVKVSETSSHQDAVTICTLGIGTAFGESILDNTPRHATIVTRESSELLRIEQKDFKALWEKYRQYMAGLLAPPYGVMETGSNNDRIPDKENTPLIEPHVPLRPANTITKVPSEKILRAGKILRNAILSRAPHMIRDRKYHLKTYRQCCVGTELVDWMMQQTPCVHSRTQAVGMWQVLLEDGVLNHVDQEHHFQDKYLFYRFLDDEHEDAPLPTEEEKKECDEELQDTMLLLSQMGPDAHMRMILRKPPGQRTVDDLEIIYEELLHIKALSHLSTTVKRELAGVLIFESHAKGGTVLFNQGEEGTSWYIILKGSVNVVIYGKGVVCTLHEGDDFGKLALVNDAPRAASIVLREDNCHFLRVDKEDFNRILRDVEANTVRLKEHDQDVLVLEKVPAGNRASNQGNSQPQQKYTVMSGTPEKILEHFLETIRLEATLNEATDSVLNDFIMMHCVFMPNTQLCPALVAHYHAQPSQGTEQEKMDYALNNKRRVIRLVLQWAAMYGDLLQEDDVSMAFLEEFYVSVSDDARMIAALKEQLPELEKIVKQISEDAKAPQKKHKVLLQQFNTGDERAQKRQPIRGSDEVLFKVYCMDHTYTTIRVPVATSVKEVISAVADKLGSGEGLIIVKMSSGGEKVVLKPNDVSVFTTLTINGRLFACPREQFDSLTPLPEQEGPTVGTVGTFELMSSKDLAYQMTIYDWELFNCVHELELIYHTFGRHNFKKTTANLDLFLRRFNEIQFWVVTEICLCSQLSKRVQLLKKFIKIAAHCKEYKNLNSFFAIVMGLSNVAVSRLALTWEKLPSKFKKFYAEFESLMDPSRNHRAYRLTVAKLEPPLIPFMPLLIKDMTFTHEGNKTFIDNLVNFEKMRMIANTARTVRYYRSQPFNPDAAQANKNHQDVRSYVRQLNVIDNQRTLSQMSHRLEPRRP", "assay": "Confirmatory qHTS for antagonist of cAMP-regulated guanine nucleotide exchange factor 4 (EPAC2) (AID 1645885); also: % is scaled to controls: 0 for no effect and ±100 for the full control effect; nearly all actives have a fitted effect of over 25% in size", "details": "EPAC2 Rap1B-BODIPY-GDP exchange fluorescence, biochemical; activity change, negative = inhibition: at 12.7 µM (top of the series) unless noted; series mostly up to 114 µM"}}, "note": "Inconclusive results, whose numbers are uncertain, are shown with a selection of clear calls. For part of these data: No potency is given beside an inconclusive call; the fits are too rough. The source made the active and inactive calls. Calls follow the shape of the dose curve; as a rule, active = well fitted curve in the direction sought with a large enough effect; inconclusive = small, poorly fitted or top-dose-only effect, or another doubt; inactive = no such curve, though single readings can be large; an effect the other way counts as inactive or inconclusive. Tags tell the direction and shape of the fitted curve."}
{"smiles": "FC(F)(F)c1ccc(CSc2nccn2-c2ccccc2)cc1", "values": [{"measurement": "Potency", "setting": "[1]", "value": "inconclusive [inhibitor, partial curve, poor fit]"}, {"measurement": "Potency", "setting": "[2]", "value": "inconclusive [activator, full curve, poor fit]"}]}
{"smiles": "COc1ccccc1N1CCN(CC(O)COc2ccc(C)cc2C(C)(C)C)CC1", "note": "(stereo not drawn)", "values": [{"measurement": "Potency", "setting": "[1]", "value": "inconclusive [inhibitor, partial curve, poor fit]"}, {"measurement": "Potency", "setting": "[2]", "value": "inactive"}]}
{"smiles": "Cc1ccc(-c2csc(NS(=O)(=O)c3cccc(F)c3)n2)o1", "values": [{"measurement": "Potency", "setting": "[3]", "value": "inconclusive [inhibitor, single point]"}, {"measurement": "Potency", "setting": "[4]", "value": "inconclusive [inhibitor, partial curve, poor fit]"}, {"measurement": "Potency", "setting": "[1]", "value": "active: 14.1 µM"}, {"measurement": "Potency", "setting": "[5]", "value": "inactive"}]}
{"smiles": "O=C(CSc1nc(O)cc(=O)n1-c1ccccc1)Nc1nc2ccccc2s1", "values": [{"measurement": "Potency", "setting": "[1]", "value": "inconclusive [inhibitor, partial curve]"}, {"measurement": "Potency", "setting": "[2]", "value": "inconclusive [activator, full curve]"}]}
{"smiles": "COc1ccc(C2CC(=O)Oc3cc(C)cc(C)c32)cc1", "note": "(stereo not drawn)", "values": [{"measurement": "Potency", "setting": "[1]", "value": "inactive"}, {"measurement": "Potency", "setting": "[2]", "value": "inconclusive [activator, partial curve, poor fit]"}]}
{"smiles": "CCOC(=O)C1=C(N)Oc2cc(O)ccc2C1c1ccccc1", "note": "(stereo not drawn)", "values": [{"measurement": "Potency", "setting": "[1]", "value": "inconclusive [inhibitor, partial curve]"}, {"measurement": "activation", "setting": "[2]", "value": "inactive: 10.8% [at 30.8 µM]"}]}
{"smiles": "CCN(CC)CCn1c2c(c(SCC(=O)Nc3nc4ccccc4s3)nc1=O)CCCC2", "values": [{"measurement": "Potency", "setting": "[1]", "value": "inactive"}, {"measurement": "activation", "setting": "[2]", "value": "inconclusive: 30.6% [activator]"}]}
{"smiles": "COc1ccc2c(c1)CCc1c(C(=O)N(C)c3ccccc3)noc1-2", "values": [{"measurement": "Potency", "setting": "[1]", "value": "inactive"}, {"measurement": "activation", "setting": "[2]", "value": "inconclusive: 35.8% [activator]"}]}
